The source gives no read counts; variants with many changes may rest on few reads.
B1: LINE1-mini (parent)
chain: GGCAGAGCUCAACACAGCGUGGCAAAGUGGCUGUGGCUAGACUGCC

Variants of: B1
Assay: self-cleavage, relative activity (ratio to wild type); higher = more cleavage; in vitro, sequencing; the parent is a self-cleaving ribozyme

Row | Variant | self-cleavage
1 | G5C C13A G19A A39G | 0.06
2 | G5C C13A G33C | 0.05
3 | G5C C13A G35U | 0.1
4 | G5C C13A U38C | 0.02
5 | G5C C13G A41C | 0.05
6 | G5C C13G C15U A24G A39C U43A | 0.01
7 | G5C C13G G22C A24U | 0.01
8 | G5C C13G G33A | 0.34
9 | G5C C13G G36A G40A | 0.07
10 | G5C C13U A16G | 0
11 | G5C C13U A24C A41C | 0.03
12 | G5C C13U A41C G44A | 0.09
13 | G5C C13U C23U U28C G30A | 0.06
14 | G5C C13U G17C | 0.03
15 | G5C C13U G30A | 0.07
16 | G5C C13U G36U | 0.04
17 | G5C C15A A24C G30C | 0.02
18 | G5C C15A G27C G29A C46A | 0.03
19 | G5C C15A G29C C42U | 0.03
20 | G5C C15A U20G C37A | 0.03
21 | G5C C15A U34G G36C | 0.02
22 | G5C C15G A25C C45U | 0.01
23 | G5C C15G C18U U34A C46G | 0
24 | G5C C15G G17U U28G U32G | 0.02

Row | Variant | self-cleavage
25 | G5C C15G G21A | 0.02
26 | G5C C15G G40U | 0.02
27 | G5C C15G U32G G33C | 0.03
28 | G5C C15G U38C | 0.02
29 | G5C C15U A16U C18A G29U A41C | 0.01
30 | G5C C15U A24C | 0.08
31 | G5C C15U C37G | 0.04
32 | G5C C15U C46U | 0.07
33 | G5C C15U G30U | 0.04
34 | G5C C15U U20C G33U | 0.06
35 | G5C C15U U28A | 0.1
36 | G5C C15U U28A G29U G40C | 0.08
37 | G5C C18A C46G | 0.03
38 | G5C C18A G36U | 0.03
39 | G5C C18A U20A | 0.03
40 | G5C C18A U32C U43C | 0
41 | G5C C18G G21A C23U U43A | 0.02
42 | G5C C18G G22U A26G U32C | 0.01
43 | G5C C18G G29U U43A | 0.05
44 | G5C C18G G35U | 0.04
45 | G5C C18G U43C | 0.01
46 | G5C C18U A26G | 0.03
47 | G5C C18U C37U | 0.04
48 | G5C C18U G36C G44U | 0.04

Row | Variant | self-cleavage
49 | G5C C18U U28G G35A | 0.04
50 | G5C C18U U32C C37U | 0.05
51 | G5C C23A A39U C42U | 0.02
52 | G5C C23A G30C | 0.06
53 | G5C C23A G36U | 0.04
54 | G5C C23A G40U | 0.46
55 | G5C C23A U43A | 0.21
56 | G5C C23G A25C C37U C42U U43C G44A | 0.01
57 | G5C C23G A25U G35A | 0.04
58 | G5C C23G A26G | 0.02
59 | G5C C23G G30A A39G | 0.02
60 | G5C C23G U28G | 0.03
61 | G5C C23U C42A U43C | 0.02
62 | G5C C23U G27A C37U | 0.01
63 | G5C C31A G44A | 0.04
64 | G5C C31A U34A U43C | 0
65 | G5C C31G C45G | 0.04
66 | G5C C37A U38G | 0.04
67 | G5C C37U C46G | 0.02
68 | G5C C37U G44U | 0.07
69 | G5C C42A U43A | 0.03
70 | G5C C42G C46G | 0.17
71 | G5C C45U C46U | 0.04
72 | G5C G7A A12C C13A G21A | 0.25

Row | Variant | self-cleavage
73 | G5C G7A A12U C15A U20A A39U C45A | 0
74 | G5C G7A A14U A16G G17C G36C C45U C46G | 0.03
75 | G5C G7A A16G C45U | 0.24
76 | G5C G7A A25G C31G | 0.04
77 | G5C G7A A25G U32C | 0.12
78 | G5C G7A C13U | 0.1
79 | G5C G7A C15A | 0.15
80 | G5C G7A C18A A24C | 0.06
81 | G5C G7A C23A C42U | 0.12
82 | G5C G7A G21U C42G | 0.12
83 | G5C G7A G29C G35U | 0.08
84 | G5C G7A G29U G30C G35C | 0.28
85 | G5C G7A U9G A16U G17A C23U C31A U38C | 0.04
86 | G5C G7C A11C C31U C37G | 0.01
87 | G5C G7C A11C G17A C37A | 0.02
88 | G5C G7C A14G G17U G35A | 0.05
89 | G5C G7C A41U | 0.08
90 | G5C G7C C8G C10A A41C | 0.02
91 | G5C G7C C15A U20A C23U U28G G29A U34A | 0.01
92 | G5C G7C C18A U20G A24U | 0.01
93 | G5C G7C C18U G22C | 0.04
94 | G5C G7C C37A | 0.32
95 | G5C G7C U20C | 0.08
96 | G5C G7C U32G | 0.04

Row | Variant | self-cleavage
97 | G5C G7U A11G C46A | 0.04
98 | G5C G7U A12G G19U G27A U34C C45U | 0.07
99 | G5C G7U A14U C45A C46A | 0.06
100 | G5C G7U A16G G27C A41G | 0.03
101 | G5C G7U A24U C31A | 0.01
102 | G5C G7U A41C | 0.24
103 | G5C G7U C8A A11U C23G G33A G36C U38C | 0.01
104 | G5C G7U C10A A14U A25U C42G | 0.01
105 | G5C G7U C15A G27U G29A U32C | 0.14
106 | G5C G7U C46A | 0.09
107 | G5C G7U U32A | 0.21
108 | G5C G17A A24U G27C | 0
109 | G5C G17A A25C G36A | 0
110 | G5C G17A A26C | 0.06
111 | G5C G17A C18U G21C G22C C23U G30U C46U | 0.04
112 | G5C G17A G21A C45G | 0.01
113 | G5C G17A G22C | 0.04
114 | G5C G17A G29A G33A C37A | 0.03
115 | G5C G17A G40U | 0.04
116 | G5C G17A U38C | 0.09
117 | G5C G17C A24U A26C C37U | 0.05
118 | G5C G17C G19U C23U U28C G30U C42A | 0.01
119 | G5C G17C G22A | 0.06
120 | G5C G17C G27U | 0.02

Row | Variant | self-cleavage
121 | G5C G17C U34G | 0.2
122 | G5C G17C U43A | 0.09
123 | G5C G19A A41G U43C | 0.02
124 | G5C G19A C37G | 0.03
125 | G5C G19A G35A | 0.03
126 | G5C G19C G22C | 0.03
127 | G5C G19C G33C | 0.08
128 | G5C G19C G33U G35C | 0.51
129 | G5C G19C G36A U43A | 0
130 | G5C G19C G40U G44A | 0.01
131 | G5C G19C U20C C45A | 0.03
132 | G5C G19U A25U G30A A39C A41C | 0.16
133 | G5C G19U C23A U34A A39G | 0.02
134 | G5C G19U C31A | 0.01
135 | G5C G19U C46U | 0.02
136 | G5C G19U U34C C45A | 0.05
137 | G5C G19U U38A C42A G44A | 0.01
138 | G5C G21A C23U C37G | 0.02
139 | G5C G21A G44U | 0.07
140 | G5C G21C A26U G27A G30C U32C G40A | 0.02
141 | G5C G21C C23G C46A | 0.02
142 | G5C G21C C23U U34C | 0.03
143 | G5C G21C C45G | 0.03
144 | G5C G21U A41G | 0.04

Row | Variant | self-cleavage
145 | G5C G21U G30A | 0.08
146 | G5C G21U U34C C46A | 0.02
147 | G5C G22A G30C | 0.04
148 | G5C G22U A26C | 0.06
149 | G5C G22U C23A C42G | 1.79
150 | G5C G22U G33C C37U | 0.04
151 | G5C G27A G33U | 0.6
152 | G5C G27A G35C G40U G44A | 0.04
153 | G5C G27A U32G U38A U43C | 0.04
154 | G5C G27C A39G | 0.07
155 | G5C G27U U38C | 0.05
156 | G5C G29A C31U G33U G35A C42U G44U | 0.01
157 | G5C G29A C37A | 0.03
158 | G5C G29C C31A C45A | 0.04
159 | G5C G29C G36U | 0.03
160 | G5C G29U C45A | 0.04
161 | G5C G30A G40C | 0.07
162 | G5C G30C C46G | 0.01
163 | G5C G30C G36U | 0.04
164 | G5C G30U C31U C37U A41G | 0.03
165 | G5C G30U C37G | 0.11
166 | G5C G30U G33A | 0.04
167 | G5C G30U G35A | 0.21

— the RNAGym collection of RNA variant scans (doi:10.7554/elife.90254)
